Laboratory results published in the supplement of paper PMC9446081.
Among all 39,000 compounds or so, about 220 (0.56%) showed activity. The list shows a part of the results.

What follows are compounds tested on Escherichia coli K-12 BW25113 (assay: relative growth (OD600 normalised to plate interquartile mean) (fraction); higher = less growth inhibition, active = 0.2 or less). Settings: 50 µM; LB; incubation time: overnight (16-24 h).
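Note: static incubation at 37 °C against the wild-type strain, values averaged over two biological replicates.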

Row | SMILES | relative growth
1 | Cc1ccc(S(=O)(=O)Nc2ccc3c(c2)C(=O)N([C@@H](C)CO)C[C@H](C)[C@H](CN(C)Cc2ccc(C(F)(F)F)cc2)OCCCC[C@@H](C)O3)cc1 | inactive: 1.02
2 | CC(C)CN1C[C@H](C(=O)O)CC1=O | inactive: 0.988
3 | COc1ccc(CN(C)C[C@H]2Oc3ccc(NS(C)(=O)=O)cc3CC(=O)N([C@H](C)CO)C[C@@H]2C)cc1 | inactive: 0.96
4 | O=C(C[C@@H]1CC[C@@H]2[C@H](COC[C@H](O)CN2C(=O)Nc2ccc(Cl)cc2)O1)NCCc1ccncc1 | inactive: 0.946
5 | C[C@H](CO)N1C[C@H](C)[C@H](CN(C)S(=O)(=O)c2cn(C)cn2)Oc2ncc(-c3ccc(F)cc3)cc2C1=O | inactive: 1.02
6 | O=C1NCCC[C@@H]1C(=O)N1CCCCC1 | inactive: 0.98
7 | CC(C)NC(=O)Nc1cccc2c1O[C@H](CN(C)Cc1ccc(C(=O)O)cc1)[C@H](C)CN([C@@H](C)CO)C2=O | inactive: 0.996
8 | Cc1ccc(S(=O)(=O)N(C)C[C@@H]2Oc3ccc(NC(=O)C4CC4)cc3C(=O)N([C@@H](C)CO)C[C@@H]2C)cc1 | inactive: 1
9 | NNC(=O)CNc1ccc2c(c1)OCO2 | inactive: 1.03
10 | CC(C)CC[C@@H](O)[C@H]1C[C@@H](CO)OC1=O | inactive: 0.995
11 | CCCCc1cn(C[C@@H]2CCCN2C(=O)N[C@H](CO)CCc2oc(C(C)=O)c(C(=O)OC)c2C(=O)OC)nn1 | inactive: 1
12 | C[C@H]1CCCCO[C@@H](CN(C)C(=O)Nc2cccc3ccccc23)[C@@H](C)CN([C@@H](C)CO)C(=O)c2cc(NS(=O)(=O)c3ccc(Cl)cc3)ccc2O1 | inactive: 1.02
13 | C[C@@H]1CCCCO[C@@H](CN(C)C(=O)C2CCCCC2)[C@H](C)CN([C@@H](C)CO)C(=O)c2cc(NC(=O)Nc3ccc(F)cc3)ccc2O1 | inactive: 1.01
14 | C[C@@H]1CCCCO[C@@H](CN(C)C(=O)C2CCCCC2)[C@@H](C)CN([C@@H](C)CO)C(=O)c2cc(NC(=O)c3ccccc3)ccc2O1 | inactive: 1.03
15 | O=S(=O)(Cc1ccccc1)Nc1ccc(-c2ccc3c(cnn3-c3ccc(F)cc3)c2)c(C(F)(F)F)c1 | inactive: 0.921
16 | C[C@H](CO)N1C[C@H](C)[C@H](CN(C)S(C)(=O)=O)Oc2ccc(NC(=O)CCN3CCOCC3)cc2C1=O | inactive: 1.01
17 | COc1ccc(NC(=O)N(C)C[C@@H]2Oc3ccc(NC(=O)C4CC4)cc3CC(=O)N([C@@H](C)CO)C[C@@H]2C)cc1 | inactive: 0.998
18 | C[C@H]1CN([C@@H](C)CO)C(=O)c2c(c3ccccc3n2C)-c2ccccc2CO[C@H]1CN(C)S(=O)(=O)c1ccc(Cl)cc1 | inactive: 1.01
19 | COc1cc(N2C[C@@H]3C[C@H](C(=O)NCCN(C)C)N(C)[C@@H]3C2)ncn1 | inactive: 0.997
20 | COc1ccc(NC(=O)N(C)C[C@@H]2OCCCC[C@@H](C)Oc3ccc(NC(=O)c4ccccc4)cc3C(=O)N([C@H](C)CO)C[C@H]2C)cc1 | inactive: 0.893

Row | SMILES | relative growth
21 | C[C@@H]1CCCCO[C@@H](CN(C)S(=O)(=O)c2ccccc2)[C@H](C)CN([C@@H](C)CO)C(=O)c2cc(NC(=O)C3CCCCC3)ccc2O1 | inactive: 1.01
22 | C[C@@H]1CN([C@@H](C)CO)C(=O)c2c(c3ccccc3n2C)-c2ccccc2CO[C@H]1CN(C)C(=O)c1ccc(F)cc1 | inactive: 1.02
23 | C[C@H](CO)N1C[C@H](C)[C@@H](CN(C)Cc2ccccc2)OCCCC[C@H](C)Oc2ccc(NC(=O)NC3CCCCC3)cc2C1=O | inactive: 0.991
24 | CC(=N)NCCSCC[C@H](N)C(=O)O | inactive: 0.997
25 | COc1ccc(S(=O)(=O)Nc2ccc3c(c2)C(=O)N([C@@H](C)CO)C[C@H](C)[C@@H](CN(C)C(=O)Nc2c(C)noc2C)OCCCC[C@@H](C)O3)cc1 | inactive: 1
26 | Cc1ccc(S(=O)(=O)N(C)C[C@@H]2Oc3ccc(NS(C)(=O)=O)cc3C(=O)N([C@H](C)CO)C[C@@H]2C)cc1 | inactive: 1.03
27 | C[C@H](CO)N1C[C@H](C)[C@H](CN(C)C(=O)c2cccnc2)Oc2cc(-c3cccc(C#N)c3)ccc2S1(=O)=O | inactive: 1.01
28 | NC1(Cc2ccc(Cl)cc2)CCN(c2ncnc3[nH]ccc23)CC1 | inactive: 0.933
29 | NC[C@H]1CCCN(C(=O)Nc2ccc(Oc3ccccc3)cc2)C1 | inactive: 1.03
30 | C[C@@H]1CCCCO[C@H](CN(C)Cc2ccc(C(F)(F)F)cc2)[C@@H](C)CN([C@H](C)CO)C(=O)c2cc(NS(=O)(=O)c3cn(C)cn3)ccc2O1 | inactive: 1.01
31 | COCC(=O)N1C[C@H](C)[C@H](OC)CN(C)C(=O)c2cc(NC(=O)c3ccc(OC)cc3)ccc2OC[C@@H]1C | inactive: 0.997
32 | C[C@@H]1CN([C@@H](C)CO)C(=O)c2cc(NC(=O)Nc3ccc(C(F)(F)F)cc3)ccc2O[C@@H](C)CCCCO[C@H]1CN(C)Cc1ccc(C(F)(F)F)cc1 | inactive: 1.01
33 | O=S(=O)(c1cccc(OC(F)F)c1)N1[C@@H]2CC[C@@H](C2)[C@H]1c1nc2cccc(OCc3ccccc3)c2[nH]1 | inactive: 0.981
34 | C[C@H](CO)N1C[C@H](C)[C@H](CN(C)Cc2ccccc2)Oc2ccc(NC(=O)CCN3CCOCC3)cc2C1=O | inactive: 1.01
35 | Cc1noc(C)c1NC(=O)Nc1ccc2c(c1)C(=O)N([C@@H](C)CO)C[C@H](C)[C@@H](CN(C)S(=O)(=O)c1cn(C)cn1)O2 | inactive: 1.01
36 | C[C@@H]1CCCCO[C@@H](CN(C)Cc2ccc(C(F)(F)F)cc2)[C@H](C)CN([C@H](C)CO)C(=O)c2cc(NC(=O)C3CCCCC3)ccc2O1 | inactive: 1.03
37 | C[C@@H]1CN([C@H](C)CO)C(=O)c2cc(NC(=O)Nc3cccc4ccccc34)ccc2O[C@H]1CN(C)C(=O)Nc1cccc2ccccc12 | inactive: 0.988
38 | Cc1ccc(S(=O)(=O)N(C)C[C@@H]2Oc3ccc(NS(=O)(=O)c4cn(C)cn4)cc3CC(=O)N([C@H](C)CO)C[C@@H]2C)cc1 | inactive: 1.03
39 | Cc1noc(C)c1S(=O)(=O)N(C)C[C@H]1OCCCC[C@@H](C)Oc2ccc(NS(C)(=O)=O)cc2C(=O)N([C@@H](C)CO)C[C@H]1C | inactive: 1
40 | Cc1noc(C)c1NC(=O)Nc1ccc2c(c1)C(=O)N([C@H](C)CO)C[C@H](C)[C@H](CN(C)S(=O)(=O)c1ccccc1)OCCCC[C@H](C)O2 | inactive: 0.973

Row | SMILES | relative growth
41 | C[C@@H]1CCCCO[C@@H](CN(C)Cc2ccc(Cl)c(Cl)c2)[C@@H](C)CN([C@@H](C)CO)C(=O)c2cc(NS(=O)(=O)c3cccs3)ccc2O1 | inactive: 1.04
42 | O=C1c2ccccc2[C@](Cc2ccccc2I)(C(=O)O)[C@H](c2ccc(CO)cc2)N1C1CCCCC1 | inactive: 1.02
43 | Cc1noc(C)c1NC(=O)Nc1ccc2c(c1)C(=O)N([C@@H](C)CO)C[C@@H](C)[C@H](CN(C)S(=O)(=O)c1ccc(F)cc1)OCCCC[C@H](C)O2 | inactive: 1.03
44 | O=C(C[C@@H]1CC[C@@H]2[C@H](COC[C@H](O)CN2S(=O)(=O)c2ccc(Cl)cc2)O1)N[C@@H]1CCN(Cc2ccccc2)C1 | inactive: 0.985
45 | CCCN(C)C[C@@H]1OCCCC[C@@H](C)Oc2ccc(NC(=O)Cc3ccccc3)cc2C(=O)N([C@H](C)CO)C[C@@H]1C | inactive: 0.977
46 | C[C@H](CO)N1C[C@H](C)[C@@H](CN(C)C(=O)CN(C)C)Oc2ncc(-c3ccc(C(=O)N(C)C)cc3)cc2C1=O | inactive: 0.975
47 | C=CCC[C@H](Cc1ccc(F)cc1)C(=O)O[C@H](CNC(=O)[C@@H](CC=C)CC(=O)N[C@H](CO)Cc1ccccc1)c1ccccc1 | inactive: 0.993
48 | N#C/C(=N\O)C(=O)c1ccco1 | inactive: 1
49 | C[C@H](CO)N1C[C@H](C)[C@@H](CN(C)C(=O)c2cnccn2)Oc2cc(C3=CCCC3)ccc2S1(=O)=O | inactive: 0.99
50 | C[C@@H]1CN([C@H](C)CO)C(=O)c2cc(NS(=O)(=O)c3cccs3)ccc2O[C@H]1CN(C)CC1CC1 | inactive: 0.986
51 | CCN(CC)CCCC(C)Nc1c2ccc(Cl)cc2nc2ccc(OC)cc12.Cl.Cl (stereo not given) | inactive: 1.18
52 | CO[C@H]1CN(C)C(=O)c2ccc(NC(=O)C3CCOCC3)cc2OC[C@@H](C)N(Cc2cccnc2)C[C@H]1C | inactive: 1.02
53 | Cc1noc(C)c1NC(=O)Nc1ccc2c(c1)CC(=O)N([C@@H](C)CO)C[C@@H](C)[C@H](CN(C)S(=O)(=O)c1ccccc1)O2 | inactive: 0.986
54 | COc1ccc(S(=O)(=O)Nc2ccc3c(c2)C(=O)N([C@@H](C)CO)C[C@@H](C)[C@@H](CN(C)Cc2ccccc2)OCCCC[C@@H](C)O3)cc1 | inactive: 1.04
55 | C[C@H](CO)N1C[C@H](C)[C@@H](CN(C)C(=O)Nc2cccc3ccccc23)Oc2ccc(NS(=O)(=O)c3ccccc3)cc2C1=O | inactive: 0.998
56 | O=C(C1=C[C@H](c2coc3ccccc3c2=O)C[C@H](OCCCCO)O1)N1CCOCCOCCOCCOCC1 | inactive: 0.993
57 | C[C@@H]1CN([C@@H](C)CO)C(=O)c2cc(NS(=O)(=O)c3cn(C)cn3)ccc2O[C@@H]1CN(C)S(=O)(=O)c1cccs1 | inactive: 1.03
58 | C[C@H](CO)N1C[C@H](C)[C@H](CN(C)Cc2cccc(C(F)(F)F)c2)Oc2ncc(C#CCN(C)C)cc2C1=O | inactive: 0.962
59 | COc1ccc(NC(=O)Nc2ccc3c(c2)CC(=O)N([C@@H](C)CO)C[C@@H](C)[C@@H](CN(C)S(C)(=O)=O)O3)cc1 | inactive: 1
60 | Cc1ccc(OCc2nnn(CC(=O)NS(=O)(=O)c3c(C)nn(C)c3Cl)c2-c2ccccc2)cc1 | inactive: 0.987
